# Assay results: PubChem BioAssay AID488969 (Vanderbilt High Throughput Screening Facility, 2010)
# Whole data set: some 110,000 compounds, median “z-score” near -0.1, cut for the highest 2% near 2. The list shows a part of the results. Active and inactive are the calls of the source.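 The calls were made as follows: active = z-score in the third read window above 3 or below -3; inactive = the rest.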
# Target: Metabotropic glutamate receptor 8 (Rattus norvegicus) (UniProt P70579)
# Test: rat mGluR8 modulators via GIRK flux, primary screen, cell-based, thallium flux, HTS (AID 488969)
# Conditions: HEK293 rat mGluR8, GIRK (G protein-gated inwardly rectifying potassium channel) thallium flux, FluoZin2; at 10 µM; stronger effect = higher value; submaximal glutamate (EC20) added with thallium
# UniProt P70579, sequence (P70579 whole entry, looked up): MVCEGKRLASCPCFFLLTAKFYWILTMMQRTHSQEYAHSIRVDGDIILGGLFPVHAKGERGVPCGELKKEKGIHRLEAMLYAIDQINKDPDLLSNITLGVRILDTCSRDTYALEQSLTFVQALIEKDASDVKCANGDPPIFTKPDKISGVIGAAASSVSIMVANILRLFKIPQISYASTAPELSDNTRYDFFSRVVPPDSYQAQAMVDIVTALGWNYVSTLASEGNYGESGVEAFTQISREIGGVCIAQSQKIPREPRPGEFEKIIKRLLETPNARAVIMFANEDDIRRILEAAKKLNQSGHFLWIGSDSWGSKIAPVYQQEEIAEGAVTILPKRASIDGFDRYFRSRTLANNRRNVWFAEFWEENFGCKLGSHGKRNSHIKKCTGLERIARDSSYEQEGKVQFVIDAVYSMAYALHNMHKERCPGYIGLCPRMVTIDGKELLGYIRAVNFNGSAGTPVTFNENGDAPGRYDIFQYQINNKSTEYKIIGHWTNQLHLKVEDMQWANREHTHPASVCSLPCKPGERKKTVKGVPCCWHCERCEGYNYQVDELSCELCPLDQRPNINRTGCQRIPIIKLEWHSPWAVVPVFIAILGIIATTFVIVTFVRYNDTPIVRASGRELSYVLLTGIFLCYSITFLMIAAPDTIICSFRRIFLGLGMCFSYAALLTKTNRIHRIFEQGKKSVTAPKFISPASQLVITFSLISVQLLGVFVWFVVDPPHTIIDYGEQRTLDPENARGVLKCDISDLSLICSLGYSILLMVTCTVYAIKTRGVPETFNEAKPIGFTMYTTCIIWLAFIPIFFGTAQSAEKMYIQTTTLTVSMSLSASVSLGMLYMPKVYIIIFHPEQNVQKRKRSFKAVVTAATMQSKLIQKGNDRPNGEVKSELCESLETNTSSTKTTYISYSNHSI
row,SMILES,z-score
1,COc1cccc(NS(=O)(=O)c2ccc3c(c2)C2C=CCC2C(c2ccc(C(=O)O)cc2)N3)c1 (centres undefined),-0.315
2,COc1cc(NS(C)(=O)=O)c(OC)cc1NC(=O)c1ccccc1,0.0936
3,Cc1ccc(S(=O)(=O)NCCCN2CCOCC2)cc1C,-0.132
4,Nc1c(C(=O)c2ccc(Cl)cc2)sc2c1c(=O)[nH]c(=O)n2-c1ccccc1,-0.486
5,CCOC(=O)C1CCN(C(=O)COc2cc(C)c(Br)cc2C)CC1,-1.3
6,NC(=S)N/N=C/c1ccc2ccccc2c1,-0.0916
7,O=C(CCC1CCCCC1)NCc1ccncc1,0.303
8,CC(OC(=O)c1cc(=O)[nH]c2ccccc12)c1ccccc1 (centres undefined),-0.299
9,Cc1cc(C(=O)O)c2ccccc2n1,0.787
10,O=C(CSc1ncnc2c1cnn2-c1ccc(F)cc1)NCc1ccc2c(c1)OCO2,0.54
11,COc1cccc(CNc2nc3ccccc3n2CCN2CCCCC2)c1,0.395
12,CCOc1ccccc1NC(=O)C(OC(=O)c1ccc(O)cc1)c1ccccc1 (centres undefined),-0.238
13,CCOC(=O)c1sc2nc(NC(=O)COc3ccccc3)sc2c1C,0.358
14,O=C(NCc1ccco1)C1CCN(S(=O)(=O)N2CCC3(CC2)OCCO3)CC1,0.205
15,CCCSC(=S)NC1CCS(=O)(=O)C1 (centres undefined),-0.344
16,CC(C(=O)NCC1CCCO1)N(C(=O)c1snc(C(N)=O)c1N)c1ccccc1 (centres undefined),-0.0824
17,Cn1c(=O)c2cc(S(=O)(=O)NC(Cc3ccccc3)C(=O)NCc3ccco3)ccc2n(C)c1=O (centres undefined),0.174
18,Cc1nnc(SCC(=O)Nc2ccc3c(c2)OCCO3)s1,0.669
19,CCOC(=O)c1[nH]c(C)c(C(=O)N2CCN(C(=O)c3ccco3)CC2)c1C,-0.333
20,Nn1c(SCC(=O)N2CCN(S(=O)(=O)c3ccc(Cl)cc3)CC2)nnc1-c1cccs1,-0.22
21,Cc1ccc(-n2nnnc2SCC(=O)N2CC(=O)Nc3ccccc32)cc1,-0.327
22,COc1ccc(C2c3sc(=O)[nH]c3SC3C4CCC(C4)C23)cc1OC (centres undefined),0.72
23,O=C(CN1CCOCC1)Nc1ncc(Cc2cccc3ccccc23)s1,-0.232

row,SMILES,z-score
1,O=C(CC(SCCO)c1ccc(F)cc1)c1ccco1 (centres undefined),-0.352
2,O=C(NCc1ccco1)C1(c2ccccc2)CCCC1,-0.175
3,Fc1cccc(CO/N=C/c2c(-c3ccccc3)nc3ccc(Cl)cn23)c1,-0.244
4,CCc1nc(OCCN(C)C)c2oc3ccccc3c2n1,-1.28
5,CCCCn1c(-c2csc(CC)c2)n[nH]c1=S,2.15
6,O=C(CC1SC(N2CCCCC2)=NC1=O)Nc1cccc(C(=O)O)c1 (centres undefined),0.134
7,COc1cc(Br)cc2cc(C(=O)N3CCCCC3C)c(=O)oc12 (centres undefined),-0.52
8,NC(=O)c1ncc(C(F)(F)F)cc1Oc1ccc(C(F)(F)F)cc1,-0.58
9,COc1cc(C)ccc1OCCOc1ccccc1Cl,-0.321
10,Cc1ccc(C(=O)Nc2sc(C)c(C)c2C(=O)c2ccccc2)cc1,-0.0387
11,C=CCNC(=O)C(=O)N/N=C/c1ccco1,0.424
12,CC(=O)N(CCc1ccccc1C)Cc1cc2cc3c(cc2[nH]c1=O)OCO3,-0.227
13,CCCCn1cnc2sc(-c3ccccc3)cc2c1=O,-0.421
14,Cc1cc(C)cc(NS(=O)(=O)c2ccc3[nH]cc(C(=O)N4CCc5ccccc54)c(=O)c3c2)c1,0.0917
15,COc1cc(-c2cc(OC)c3c(C)oc(C)c3c(=O)c2)ccc1O,0.102
16,O=C(NCC1CCCO1)c1onc(CSc2cccc3ccccc23)c1C(=O)O (centres undefined),-0.156
17,O=S(=O)(NC1CCCCC1Sc1ncccn1)c1ccccc1 (centres undefined),-0.261
18,Cc1cc(C)cc(OCC(O)CN2C(=O)NC(C)(C)C2=O)c1 (centres undefined),-0.29
19,O=C(Nc1ccccc1)N(CCCN1CCOCC1)Cc1cccs1,-0.217
20,Cc1cc(N(CC(=O)NC2CC2)S(C)(=O)=O)ccc1Br,-0.045
21,CC(C)(C)c1ccc(C(=O)Nc2nnc(Cc3c[nH]c4ccccc34)s2)cc1,-0.233
22,CC(=O)N=c1sccn1CC(=O)c1ccc([N+](=O)[O-])cc1,-0.139
23,Cc1cc(C)cc(NC(=S)NCc2cccn2C)c1,-0.08

row,SMILES,z-score
1,COC(=O)c1ccc(Cl)cc1NC(=O)/C=C/c1ccc(C)o1,0.113
2,CC(C)(C)OC(=O)N1CC2Cc3[nH]c(=O)ccc3C(C2)C1 (centres undefined),1.92
3,CSc1nc2ccccc2n1C(=O)Oc1ccccc1,-0.0317
4,O=C(COc1ccccc1)NCC(c1cccs1)N1CCOCC1 (centres undefined),0.0098
5,O=C(NC1CCCCCC1)c1ccc(CN2CCOCC2)cc1,-0.356
6,O=C(CSc1nc2ccccc2[nH]1)N1CCCCC1,0.394
7,CCN(CC)S(=O)(=O)c1cccc(C(=O)N[C@H](C(=O)Nc2nc3ccc(F)cc3s2)C(C)C)c1,-0.139
8,O=C(NC1CC1)c1cc2c(s1)-c1ccccc1OC2,-0.272
9,Cc1sc2cc(-c3cccc([N+](=O)[O-])c3)c(-c3cccc([N+](=O)[O-])c3)c[n+]2c1C,0.449
10,Cc1c2ccccc2nc2c(F)c(NCCO)c(F)c(F)c12,-0.746
11,CC(C)(C)NC(=O)C(=O)NNC(=O)c1ccccc1,1.57
12,CCN(Cc1ccccc1)C(=O)CCc1nc(-c2ccc(C)cc2)no1,1.2
13,CCC(CC)C(=O)NCCc1ccc(S(N)(=O)=O)cc1,0.0753
14,O=S(=O)(c1ccc(Cl)nc1)N1CCCc2ccccc21,0.245
15,O/N=C/c1cc(Br)cc(Br)c1OCc1ccccc1,-0.0835
16,O=C(C1CCCN(c2ncccn2)C1)N1CCc2ccccc21 (centres undefined),-0.151
17,CC(=O)N1CCc2cc(S(=O)(=O)CCC(=O)N3CCc4ccccc4C3)ccc21,0.389
18,CCn1c(O)c(N=NC(=O)CNC(=O)/C=C/c2ccco2)c2ccccc21,-0.547
19,CCn1c(CNc2ccc(C(=O)O)cc2)nc2ccccc21,-0.308
20,O=S(=O)(Nc1ccc(N2CCCCC2)cc1)c1ccc(F)c(F)c1,-0.478
21,O=C(O)c1cc(NCc2ccc(F)cc2)ccc1N1CCOCC1,-0.946
22,COC(=O)CNC(=O)c1ccccc1F,0.0789
23,COc1cc(NC(=O)COc2ccc(F)cc2)nc(OC)n1,-0.114

row,SMILES,z-score
1,O=C(CN1C(=O)NC2(CCCCCC2)C1=O)N1CCN(S(=O)(=O)c2ccc(Cl)cc2)CC1,-0.0991
2,O=C(c1ccco1)N1CCN(c2ncnc3c2nnn3Cc2ccccc2Cl)CC1,0.652
3,CCOCCCNC(=S)NCCNc1nc2ccc(C)cc2cc1C#N,-0.287
4,COc1ccc(OC)c(C(C)NC=O)c1 (centres undefined),-0.24
5,CCn1ncc(Cl)c1C(=O)NC(C)c1ccccc1 (centres undefined),0.00989
6,COc1cccc(-c2cc(C(=O)Nc3cccc(O)c3)no2)c1,-0.399
7,CCc1cccc(OCCCCN(CC)CC)c1,0.22
8,CC(C)(C)c1ccc(/C=C/C(=O)Nc2ncccn2)cc1,-0.179
9,CCOC(=O)c1cc(-c2cccs2)nc2onc(C)c12,-1.14
10,COCCNC(=O)c1c(CSc2ccc(F)cc2)noc1C(=O)NCc1ccccc1,-0.0143
11,COc1cccc(-c2cn3nc(C)c(C)nc3n2)c1,0.0814
12,Cc1cccc(OCCNC(=O)c2cc(-n3cnnc3)ccc2Cl)c1,-0.286
13,COc1ccc(CN(C(=O)c2nsc(Cl)c2Cl)C(C(=O)NC2CCCCC2)c2ccc(OC)cc2)cc1 (centres undefined),-0.377
14,COc1cc(OC)cc(-c2nc(-c3ccccc3)no2)c1,-0.0774
15,COc1cc(CN2CCN(c3ccccc3F)CC2)cc(OC)c1O,0.519
16,CCCC(C)NC(=O)COc1ccc(Sc2ccc(OCC(=O)NC(C)CCC)cc2)cc1 (centres undefined),-0.102
17,O=C(N/N=C/c1cc2c3c(c1O)CCCN3CCC2)c1ccccc1O,0.304
18,CCn1c(COc2ccc(C)cc2)nnc1SCC(=O)C(C)(C)C,-0.467
19,Cc1ccc(-c2noc(CN(C(=O)CCN3C(=O)c4ccccc4C3=O)C(C)C)n2)cc1,-0.0669
20,Cc1cc(C)c(C#N)c(SC2CCCCC2=O)n1 (centres undefined),-0.0872
21,O=C1OCCC1Sc1nc2cc(Cl)ccc2n1Cc1ccccc1 (centres undefined),active: 6.69
22,O=C(NCCCN1CCCC1=O)c1cccc(C(F)(F)F)c1,-0.564
23,COc1ccc(C(OC(=O)c2c(C)noc2C)C(=O)NC2CCCC2)cc1 (centres undefined),1.27

row,SMILES,z-score
1,Cn1c(N)c(C(=O)Nc2ccc3ccccc3c2)sc1=S,-0.2
2,CCOc1ccc(N(CC(=O)Nc2nccs2)S(=O)(=O)c2c(C)noc2C)cc1,-0.177
3,COc1ccc(-c2cnnn2-c2ccc(NC(=O)/C=C/c3ccc(OC)c(OC)c3)cc2)cc1,0.0694
4,Cc1ccc(OCCn2c(CCNC(=O)C(C)C)nc3ccccc32)cc1,0.402
5,CCOc1ccc(S(=O)(=O)N2CCCCCC2)c2ccccc12,-0.161
6,COc1cc2c(cc1OC)C(C)N(C(=O)C1COc3ccccc3O1)CC2 (centres undefined),-0.0167
7,c1ccc(-c2csc3nnc(SCc4ccc5c(c4)OCO5)n23)cc1,-0.935
8,Cc1ccc(NC2c3ncccc3C(=O)N2c2ccccc2C)cc1C (centres undefined),-0.167
9,CC1=NN(C(=O)c2ccc(C)o2)C(O)(c2ccccc2)C1 (centres undefined),0.255
10,CCn1cc(C(=O)NCc2ccc3c(c2)OCO3)c2cc(OC)c(OC)cc2c1=O,-0.471
11,CN1C(=O)/C(=C/c2ccccc2OCc2ccccc2F)NC1=S,0.0517
12,CCNc1ccc(C(=O)OCC)cc1NC(=O)c1cccc(S(=O)(=O)N(C)c2ccccc2)c1,0.33
13,O=C(Nc1ccc(Br)cc1F)C1CCCN(S(=O)(=O)c2cnc[nH]2)C1 (centres undefined),0.156
14,COc1ccc(Oc2nc(C)cc(C)c2S(C)(=O)=O)cc1,0.0238
15,CCOC(=O)C1CCN(S(=O)(=O)c2cccc(-c3cn4cc(Cl)ccc4n3)c2)CC1,-0.273
16,Cn1ccnc1SCC(=O)c1ccc(Br)cc1,0.181
17,O=C(CN1CCCCCC1)Nc1cccc(Br)c1,0.334
18,Nc1[nH]c(N=NC(=O)c2ccc(F)cc2)c2ccccc12,-0.162
19,COc1cc(C(=O)Nc2ccc([N+](=O)[O-])cn2)cc(OC)c1OC,-0.0414
20,Cc1ccc(C)c(Cn2nnc3c(=O)[nH]c(C(=O)NCC4CCCO4)nc32)c1 (centres undefined),-1.02
21,Cc1ccc(NC2=C(Cl)C(=O)N(C3CCCCC3)C2=O)cc1,0.222
22,COc1ccc(-n2c(SCC(=O)Nc3sc4c(c3C#N)CCCC4)nnc2-c2ccc(O)cc2)cc1,-0.386
